From PubChem BioAssay AID504332 (National Center for Advancing Translational Sciences (NCATS), 2011)
The campaign covered roughly 350,000 compounds. About 31,000 (8.9%) were called active. The shares of active, inactive and inconclusive entries below differ from those in the screen. The call rests on the fitted dose curve; in most records, active means well fitted inhibition curve with a large enough effect; inconclusive means small, poorly fitted or top-dose-only effect; inactive means no such curve, though single readings can be large or run the other way. Potencies of inconclusive entries are doubtful fits and often do not repeat.

These molecules were tested against Histone-lysine N-methyltransferase EHMT2 (Homo sapiens) (UniProt Q96KQ7) (assay: qHTS Assay for Inhibitors of Histone Lysine Methyltransferase G9a). Conditions: G9a H3K9 monomethylation, AlphaScreen, 2 h; activity, negative = inhibition: at 59 µM (top of the series) unless noted.
Summary of the method: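 AlphaScreen read-out: biotin-H3K9 peptide (500 nM) methylation by 20 nM enzyme with 20 uM SAM, 2 h at room temperature after 15 min compound preincubation; anti-monomethyl H3K9 antibody plus donor/acceptor beads, 10 min dark.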
Further: nearly all actives have a fitted effect of over 75% in size.
On the % scale 0 is the no-effect control and ±100 the full control effect; potency means the concentration at half of the fitted maximal effect; tags describe the fitted curve by direction and shape.

Sequence of UniProt Q96KQ7 (Q96KQ7 whole entry, looked up): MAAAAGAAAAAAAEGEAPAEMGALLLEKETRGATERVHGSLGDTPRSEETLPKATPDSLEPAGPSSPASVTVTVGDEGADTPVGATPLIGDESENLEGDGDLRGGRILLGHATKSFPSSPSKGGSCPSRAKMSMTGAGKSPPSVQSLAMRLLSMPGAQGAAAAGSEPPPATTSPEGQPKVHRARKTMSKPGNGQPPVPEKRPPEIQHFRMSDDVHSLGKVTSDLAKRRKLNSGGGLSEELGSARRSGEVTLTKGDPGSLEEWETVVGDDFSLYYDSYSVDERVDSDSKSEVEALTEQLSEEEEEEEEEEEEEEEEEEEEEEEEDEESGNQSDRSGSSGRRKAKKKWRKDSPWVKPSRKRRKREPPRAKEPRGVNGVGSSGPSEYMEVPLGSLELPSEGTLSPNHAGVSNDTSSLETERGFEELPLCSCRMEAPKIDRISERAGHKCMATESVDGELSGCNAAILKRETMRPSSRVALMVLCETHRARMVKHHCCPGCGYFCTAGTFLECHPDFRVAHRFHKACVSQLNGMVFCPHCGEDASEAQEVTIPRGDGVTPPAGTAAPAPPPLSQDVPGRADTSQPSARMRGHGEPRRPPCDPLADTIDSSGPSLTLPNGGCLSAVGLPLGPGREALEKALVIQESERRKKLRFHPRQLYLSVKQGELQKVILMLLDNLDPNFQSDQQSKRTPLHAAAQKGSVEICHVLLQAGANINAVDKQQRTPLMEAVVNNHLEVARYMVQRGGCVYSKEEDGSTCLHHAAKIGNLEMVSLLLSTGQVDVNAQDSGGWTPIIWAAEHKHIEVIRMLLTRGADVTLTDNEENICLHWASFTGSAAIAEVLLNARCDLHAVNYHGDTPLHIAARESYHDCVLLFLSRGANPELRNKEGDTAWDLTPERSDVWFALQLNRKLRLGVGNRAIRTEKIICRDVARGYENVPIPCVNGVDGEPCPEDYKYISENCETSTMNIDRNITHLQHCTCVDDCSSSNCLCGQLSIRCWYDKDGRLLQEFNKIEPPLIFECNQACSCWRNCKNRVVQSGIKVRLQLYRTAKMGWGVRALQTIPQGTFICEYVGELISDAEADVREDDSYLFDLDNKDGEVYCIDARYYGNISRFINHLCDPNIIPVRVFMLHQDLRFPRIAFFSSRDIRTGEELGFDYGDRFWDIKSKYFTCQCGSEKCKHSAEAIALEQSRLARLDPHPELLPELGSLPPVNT

Row | SMILES | Potency | activity, negative = inhibition
1 | O=C(NCc1ccc(F)cc1)c1cc(-c2ccc(Cl)cc2)n[nH]1 | inactive | 
2 | CCn1c2ccccc2c2cc(NC(=O)CN3CCCC3)ccc21 | inconclusive: 89.1 µM [inhibitor, single point] | 
3 | O=C(CSc1nc2ccccc2o1)N/N=C/c1ccc(C(=O)O)cc1 | inconclusive: 70.8 µM [inhibitor, partial curve] | 
4 | Cc1ccc(C)c(N2CCN(C(=O)CCCn3c(=O)c4cccn4c4cccnc43)CC2)c1 | inconclusive: 89.1 µM [inhibitor, single point] | 
5 | CC(C(=O)Nc1ccccc1C(=O)O)n1c(C(F)(F)F)nc2ccccc21 (stereo unspecified) | inconclusive: 89.1 µM [inhibitor, partial curve, poor fit] | 
6 | CCC(=O)N1CCc2cc(Br)cc(S(=O)(=O)N3CCCC(C(=O)Nc4cccc(F)c4)C3)c21 (stereo unspecified) | inactive | 
7 | O=C(Nc1nnc(C2CC2)s1)c1cccc(S(=O)(=O)N2CCc3ccccc32)c1 | inconclusive: 0.178 µM [inhibitor, partial curve, poor fit] | 
8 | CC(C)Oc1ccc(CNC(=O)c2cccc(NC(=O)N3CCSc4ncccc43)c2)cc1 | inactive | 
9 | N#Cc1nc(-c2ccccc2F)oc1NCc1cccc2c1OCO2 | inconclusive: 12.6 µM [inhibitor, partial curve, poor fit] | 
10 | Brc1cc2c(cc1CN1CCc3ccccc3C1)OCO2 |  | inactive: -7.83% [at 2.33 µM]
11 | N#CC(C#N)=C1C=C2C=C(N3CCCCC3)CCC2CC1 (stereo unspecified) | inconclusive: 31.6 µM [inhibitor, single point] | 
12 | COCCN(CCOC)Cc1cc(=O)oc2cc3c(cc12)CCC3 | active: 50.1 µM | 
13 | NNC(=O)CCS(=O)(=O)c1ccc2ccccc2c1 | inconclusive: 39.8 µM [inhibitor, single point] | 
14 | Cn1c(=O)c2c(nc(CN3CCc4ccccc4C3)n2Cc2ccccc2)n(C)c1=O | inconclusive: 39.8 µM [inhibitor, single point] | 
15 | CN(CCOc1ccccc1)CC(=O)Nc1cc([N+](=O)[O-])ccc1Cl | inconclusive: 44.7 µM [inhibitor, partial curve] | 
16 | Oc1ccc(N=Nc2ccc3ccccc3c2)cc1 |  | inactive: -2.76% [at 0.501 µM]
17 | Cn1c(=O)c2c(nc(N3CCN(Cc4ccccc4)CC3)n2CCSc2ncccn2)n(C)c1=O | inconclusive: 35.5 µM [inhibitor, partial curve, poor fit] | 
18 | Cc1cccc(N2CCN(C(=O)CCn3c(=O)[nH]c4ccsc4c3=O)CC2C)c1 (stereo unspecified) | inconclusive: 79.4 µM [inhibitor, single point] | 
19 | CC(C)CCN1C(=O)c2ccc(C(=O)Nc3ccccn3)cc2C1=O | inactive | 
20 | COc1cccc(OCCCCN2CCCCC2)c1 | inconclusive: 3.98 µM [inhibitor, single point] | 
21 | COc1ccc(CCNC(=O)Cn2ncc3c(=O)oc4ccccc4c32)c(OC)c1 | inconclusive: 39.8 µM [inhibitor, partial curve, poor fit] | 
22 | CCn1c(Cn2nnc(-c3ccccc3)n2)nnc1SCC(=O)Nc1ccc(N(C)C)cc1 | active: 12.6 µM | 
23 | CC(=O)c1cc(CN2CCC(N3CCC(C(=O)N4CCCC4)CC3)CC2)cs1 | active: 11.2 µM | 
24 | CCOC(=O)C1(CCOc2ccccc2)CCN(Cc2nccn2CC)CC1 | inconclusive: 50.1 µM [inhibitor, partial curve] | 

Row | SMILES | Potency | activity, negative = inhibition
25 | Cc1ccc(OCCOc2cccc3ccc(C)nc23)c([N+](=O)[O-])c1 | inactive | 
26 | CN=C(Nc1ccccc1OC)SC1CC(=O)N(c2ccc(C(=O)OC)cc2)C1=O (stereo unspecified) | inactive | 
27 | CCCc1cnc(N2CCN(C(=O)c3ccc(OC)cc3)CC2)nc1 | inactive | 
28 | CC(C)NS(=O)(=O)c1ccc(OCC(=O)Nc2ccc3c(c2)OCO3)cc1 | inactive | 
29 | CCOC(=O)c1cc(-c2ccccc2)n(-c2cccc(C(=O)Nc3cc(OC)cc(OC)c3)c2)c1C | inconclusive: 39.8 µM [inhibitor, single point] | 
30 | COc1ccc(-n2nc3c(c2NC(=O)C24CC5CC(CC(C5)C2)C4)CS(=O)C3)cc1 (stereo unspecified) | active: 79.4 µM | 
31 | CC1(c2ccccc2)CC(C)(C)N2C(=O)/C(=C3\SC(=S)NC3=O)c3cccc1c32 (stereo unspecified) | inconclusive: 14.1 µM [inhibitor, partial curve, poor fit] | 
32 | CCOC(=O)C1CCN(Cc2ccccc2C(F)(F)F)CC1 | active: 15.8 µM | 
33 | Cn1c(CN(O)S(=O)(=O)c2ccc(Cl)cc2)nnc1C(F)(F)F | active: 10 µM | 
34 | Cc1ccc(S(=O)(=O)CCC(=O)N(Cc2nnc(-c3ccc(Cl)cc3)o2)C2CC2)cc1 | inconclusive: 3.16 µM [inhibitor, single point] | 
35 | CCNc1nc(N2CCOCC2)nc(N(c2ccccc2)c2ccccc2)n1 | inconclusive: 44.7 µM [inhibitor, partial curve, poor fit] | 
36 | N#CC1=C(N)OC2=C(C(=O)CC(c3ccco3)C2)C1c1ccc(OCc2c(F)cccc2Cl)cc1 (stereo unspecified) |  | inactive: -7.62% [at 0.501 µM]
37 | Cc1ccc(CNC(=O)CSc2c(C)cnc3c2c(=O)n(C)c(=O)n3C)cc1 | inactive | 
38 | O=C(C(Cc1ccccc1)n1cccc1)N1CCCCC1 (stereo unspecified) | inconclusive: 89.1 µM [inhibitor, single point] | 
39 | CC1CC(C)CN(C(=O)COC(=O)Cc2ccc(Br)cc2)C1 (stereo unspecified) | inactive | 
40 | CCOC(=O)c1cccnc1SC(CC)C(=O)NCc1ccco1 (stereo unspecified) | inconclusive: 89.1 µM [inhibitor, single point] | 
41 | Cc1ccc(C)c(N2CCN(C(=O)C3CCC(CNS(=O)(=O)c4cccs4)CC3)CC2)c1 (stereo unspecified) | inactive | 
42 | Cc1ccc(S(=O)(=O)c2cc3c(=O)n4cccc(C)c4nc3n(CC3CCCO3)c2=N)cc1 (stereo unspecified) | inactive | 
43 | O=C(Cn1nnc(-c2ccc3c(c2)OCO3)n1)Nc1ccccc1C(=O)O | inconclusive: 89.1 µM [inhibitor, single point] | 
44 | Nn1c(Cc2cccc3ccccc23)nnc1SCn1nnc2ccccc2c1=O | active: 4.47 µM | 
45 | COc1c(Cl)cc(-c2noc(C)c2C(=O)NCc2ccccc2)cc1Cl | inactive | 
46 | COC(=O)C1=C(C)N(CCc2ccccc2)C(=O)C1(NS(=O)(=O)c1ccc(NC(C)=O)cc1)C(F)(F)F (stereo unspecified) | inconclusive: 39.8 µM [inhibitor, single point] | 
47 | CCn1cc(C(=O)OCC(=O)Nc2cc(Cl)ccc2C)c(=O)c2ccc(C)nc21 | inactive | 
48 | Cc1ccc(CNC(=O)c2cn(C3CCCCC3)c(=O)c3c2c2ccccc2n3C)o1 | active: 50.1 µM | 

Row | SMILES | Potency | activity, negative = inhibition
49 | COC(=O)c1c(NC(C)=O)sc(C(=O)Nc2ccccc2)c1C | inactive | 
50 | COc1ccc(-n2c(CCC(=O)O)ccc2-c2ccc(F)cc2)c(OC)c1 | active: 39.8 µM | 
51 | CCN(CC)S(=O)(=O)c1ccc(-c2nnc3sc4cccc(C)c4n23)cc1 | inconclusive: 89.1 µM [inhibitor, single point] | 
52 | O=C(c1ccc(Br)c(S(=O)(=O)N2CCCCC2)c1)N1CCCCC1 | inactive | 
53 | C/C(=N\NS(=O)(=O)c1ccc(Cl)cc1)c1ccc(NC(=O)c2ccco2)cc1 | inconclusive: 89.1 µM [inhibitor, single point] | 
54 | CCN(CC)CCCN1C=C2C(=O)C(C)(OC(=O)C3CCCC3)C(=O)C=C2C=C1c1ccsc1 (stereo unspecified) | inactive | 
55 | COc1ccc(-c2ccc(N)cn2)cn1 |  | inactive: -2.48% [at 0.501 µM]
56 | C=CCc1cc(Cl)ccc1OCCNCCOC | inconclusive: 56.2 µM [inhibitor, partial curve, poor fit] | 
57 | COc1ccc(C2C=C(c3ccccc3)Nc3nc(NC(C)=O)nn32)cc1 (stereo unspecified) |  | inconclusive: -82.4% [inhibitor]
58 | Cc1ccc(C(=O)N/C(=C\c2ccco2)C(=O)NCc2cccnc2)cc1 | inconclusive: 10 µM [inhibitor, single point] | 
59 | CCn1c(=O)c(C(=O)CN2c3ccccc3CC2C)c(N)n(Cc2ccccc2)c1=O (stereo unspecified) | active: 22.4 µM | 
60 | Cc1ccn2cc(-c3cnoc3C)nc2c1 | inactive | 
61 | Cc1nc(CCNC(=O)C2CCC(=O)N(Cc3cccc(F)c3)C2)sc1C (stereo unspecified) | inactive | 
62 | CC(=O)c1c(C)[nH]c(C(=O)COC(=O)c2cc(C)oc2C)c1C |  | inactive: 16.3% [at 12.7 µM]
63 | Cc1ccccc1CN1CCN(S(=O)(=O)c2ccc(Cl)s2)CC1 | inactive | 
64 | O=C(CCN1CCc2ccccc2C1)Nc1ccc(F)cc1 | inconclusive: 89.1 µM [inhibitor, single point] | 
65 | C=CCNc1oc(COc2ccc(C)cc2)nc1C#N | inconclusive: 79.4 µM [inhibitor, single point] | 
66 | CC1=C(c2ccc(C)c(C)c2)S(=O)(=O)N(Cc2ccc(C(=O)NCc3ccccc3F)cc2)C1=O | inconclusive: 7.08 µM [inhibitor, partial curve, poor fit] | 
67 | O=C(CCNC(=O)c1ccc(Br)o1)NCc1ccccn1 | inconclusive: 39.8 µM [inhibitor, single point] | 
68 | O=C(NCc1ccco1)c1sc2cc(F)ccc2c1Cl | inconclusive: 28.2 µM [inhibitor, single point] | 
69 | O=C(COC(=O)/C=C/c1ccco1)Nc1cccc([N+](=O)[O-])c1 | inconclusive: 100 µM [inhibitor, single point] | 
70 | COC(=O)c1ccc(CSc2nc3c(c(=O)n2-c2ccc(C)cc2)SCC3)o1 | inconclusive: 28.2 µM [inhibitor, single point] | 
71 | CCOc1ccc(CCNC(=O)COC(=O)Cc2c[nH]c3ccccc23)cc1OCC | inconclusive: 50.1 µM [inhibitor, partial curve, poor fit] | 
